Laboratory results: paper PMC4336329 (PLoS ONE, 2015)
Hit rate of the full screen: of about 310,000 compounds, about 14,000 (4.5%) showed an effect of 50% or more. Effects have a minus sign here. The list shows a part of the results.

molecular target: human ether-à-go-go-related gene (hERG) potassium channel (human, UniProt Q12809); test: primary screen, population patch clamp on CHO cells stably expressing hERG
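Also: peak tail current of the secondary pulse compared with the same well before compound.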

Chain of human ether-à-go-go-related gene (hERG) potassium channel (Q12809 whole entry, looked up): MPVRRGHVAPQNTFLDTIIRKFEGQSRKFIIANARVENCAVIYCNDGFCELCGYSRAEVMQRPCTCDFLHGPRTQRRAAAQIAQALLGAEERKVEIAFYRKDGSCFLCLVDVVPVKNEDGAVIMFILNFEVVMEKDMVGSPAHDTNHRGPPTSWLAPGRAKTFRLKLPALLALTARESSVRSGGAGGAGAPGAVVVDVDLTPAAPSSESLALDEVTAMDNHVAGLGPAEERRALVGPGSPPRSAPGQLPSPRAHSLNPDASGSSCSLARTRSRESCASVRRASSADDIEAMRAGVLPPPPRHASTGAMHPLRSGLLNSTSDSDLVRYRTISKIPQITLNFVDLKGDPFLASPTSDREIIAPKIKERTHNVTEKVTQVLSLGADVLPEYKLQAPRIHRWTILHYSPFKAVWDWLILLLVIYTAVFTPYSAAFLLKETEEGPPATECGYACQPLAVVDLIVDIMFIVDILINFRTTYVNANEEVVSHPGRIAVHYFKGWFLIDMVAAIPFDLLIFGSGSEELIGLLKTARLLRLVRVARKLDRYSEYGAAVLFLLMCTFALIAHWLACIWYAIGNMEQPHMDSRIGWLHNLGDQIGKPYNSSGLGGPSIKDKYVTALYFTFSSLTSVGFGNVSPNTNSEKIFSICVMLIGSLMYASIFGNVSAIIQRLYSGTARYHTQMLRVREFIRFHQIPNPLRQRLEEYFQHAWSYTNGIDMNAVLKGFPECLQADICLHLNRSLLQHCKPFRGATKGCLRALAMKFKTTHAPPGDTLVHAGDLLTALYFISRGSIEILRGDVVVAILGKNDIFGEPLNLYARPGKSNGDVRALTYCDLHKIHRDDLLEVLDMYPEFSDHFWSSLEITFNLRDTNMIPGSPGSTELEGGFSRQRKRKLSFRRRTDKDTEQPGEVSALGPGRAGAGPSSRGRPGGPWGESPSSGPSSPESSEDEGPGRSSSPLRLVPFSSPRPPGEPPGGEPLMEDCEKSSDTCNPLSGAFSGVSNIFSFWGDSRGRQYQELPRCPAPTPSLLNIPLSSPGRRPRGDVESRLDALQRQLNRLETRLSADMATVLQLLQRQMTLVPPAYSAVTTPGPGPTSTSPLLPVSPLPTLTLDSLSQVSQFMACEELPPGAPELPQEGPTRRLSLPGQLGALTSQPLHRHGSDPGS

Structure (SMILES) | hERG current change (%, negative = inhibition) at 10uM [%]
C=C(C)[C@@H]1CC[C@]2(C(=O)O)CC[C@]3(C)C(CCC4[C@@]5(C)CC[C@H](O)C(C)(C)C5CC[C@]43C)C12 (some centres unmarked) | 6.48
Cc1ccccc1CC1(CO)CCCN(Cc2ccc(C#CC(C)(C)O)cc2)C1 (centres unmarked) | -28.7
N#Cc1ccc(NC(=O)CN2C(=O)NC3(CCCC3)C2=O)cc1 | -9.01
O=C(Nc1cccc2ccccc12)N(CCO)C1CCS(=O)(=O)C1 (centres unmarked) | 21.1
CCN(CC)C(=O)CP(=O)(c1ccccc1)c1ccccc1 | 13.5
Cc1ncc(CN2CCCC(C(=O)Nc3ccc(-c4cscn4)cc3)C2)cn1 (centres unmarked) | -5.31
CC1(C)C(=O)C2(CCCC2)C(=O)OC1c1ccco1 (centres unmarked) | -10.6
CCOc1cc(NC(=S)NCC2CCCO2)c(OCC)cc1NC(=O)c1ccccc1F (centres unmarked) | 3.73
CC(=O)O.O=C(O)c1ccc(-c2nc(-c3ccccc3)c(-c3ccccc3)[nH]2)cc1 | 3.42
CCOc1ccc2c(c1)C(c1ccc(C)o1)=NNC(c1ccncc1)=N2 | 6.32
COCCNC(=O)c1ccc2snnc2c1 | 2.56
CCC(C(=O)NC1CCCCCC1)n1nc(C)c2c(C)n(-c3ccccc3)nc2c1=O (centres unmarked) | -23.4
O=C(CCCN1C(=O)/C(=C\c2cccs2)SC1=S)NNC(=O)c1cccnc1 | 13.3
O=C(NNc1ccccc1[N+](=O)[O-])NC1CCCCC1 | -2.32
Cn1cccc1C(=O)C(=O)Nc1ccccc1 | 0.586
CCOC(=O)N1CCN(c2ccc(O)cc2)CC1 | 15.6
Cc1nn(C)c(C)c1S(=O)(=O)N1CCc2ccccc21 | -0.253
Cc1ccc(NC(=O)NC2CCN(S(=O)(=O)c3ccc(F)cc3)CC2)cc1 | -5.65
Cc1c([N+](=O)[O-])c([N+](=O)[O-])nn1CC(=O)N1CCCCC1 | -3.28

Structure (SMILES) | hERG current change (%, negative = inhibition) at 10uM [%]
COCCCn1c(=O)/c(=C\c2ccccc2OC(F)F)s/c1=C(/C#N)C(N)=O | 7.51
Clc1ccccc1OCCCOc1cccc2cccnc12 | 11.6
O=c1ccc(-c2ccc(S(=O)(=O)Nc3cccc([N+](=O)[O-])c3)s2)n[nH]1 | -4.47
Nc1nc(N(Cc2ccccc2)Cc2ccccc2)nc(C(F)(F)F)n1 | -2.11
COc1ccccc1N1CCN(C(=O)c2ccc([N+](=O)[O-])s2)CC1 | -54.5
CC(C)(CNC(=O)c1cc(Cl)c(O)c(Cl)c1)N1CCCCC1 | 4.69
CCc1c(C(=O)N2CCOCC2)csc1C | -4.42
COc1ccc(NC(=O)c2cc(-c3cccnc3)nc3c(C)c(C)ccc23)c(OC)c1 | -7.38
O=C1C(=O)N(Cc2cccnc2)C(c2cccc(O)c2)/C1=C(\O)c1ccc2c(c1)OCCO2 (centres unmarked) | 5.19
C[C@H]1CCC[C@@]2(O[C@H](CCO)C[C@H](O)[C@H]2O)O1 | -2.78
O=C(CN(C(=O)CCC(=O)Nc1ccccn1)c1ccc2c(c1)OCO2)NCc1ccco1 | -12.9
CC1(C)CC(=O)C(C2c3ccccc3Oc3ccccc32)C(=O)C1 | 25.6
O=C(NN=C1CCCCC1)c1cc(-c2ccccc2)n[nH]1 | 13.3
Cc1ccc2[nH]c(C)c(CCNC(=O)c3cc4cc([N+](=O)[O-])ccc4oc3=O)c2c1 | -2.16
Clc1cccc(OCCCCCN2CCOCC2)c1 | -22.6
Cc1nc2ccc(NC(=O)c3ccc(=O)[nH]c3)cc2s1 | 11.2
Cc1nnc(SCC(=O)NCC2CCCO2)n1-c1ccccc1 (centres unmarked) | -4.28
O/N=C\c1cccn1-c1nccs1 | -16.5
NS(=O)(=O)c1ccc(NC(=O)CSc2ncnc3ccccc23)cc1 | 12.6

Structure (SMILES) | hERG current change (%, negative = inhibition) at 10uM [%]
CNC(=S)N1CCN(c2ccccc2OC)CC1 | 7.94
O=C(COc1ccccc1Cl)Nc1ccc2c(c1)OCCO2 | 4.85
COc1ccc(C(=O)NCC(c2cccs2)N2CCc3ccccc32)c(OC)c1 (centres unmarked) | 8.79
Cc1ccccc1C(=O)N1CCC(C(=O)Nc2cc(C(F)(F)F)ccc2N2CCCC2)CC1 | -10.6
O=C(OCC(=O)N1CCN(C(=O)c2ccco2)CC1)c1cc(S(=O)(=O)Nc2ccc(Cl)cc2)ccc1O | -64.6
Cc1cc(NC(=O)CCNS(=O)(=O)c2cc(Br)cnc2N)ccc1Br | -8.16
Cc1ccc(-c2nc(N)c3c(-c4ccc(C)cc4)nn(C(C)(C)C)c3n2)cc1 | -1.71
CCN(C(=O)COC(=O)c1sccc1C)c1c(N)n(Cc2ccccc2)c(=O)[nH]c1=O | -1.45
Cc1nn(-c2ccccc2)c(Cl)c1/C=N/Nc1ccc(Cl)c(C(=O)O)c1 | 21.3
C=CCOc1ccc(Cl)cc1CNC1CCCC1.Cl | -21.9
Cc1ccc(C)c(S(=O)(=O)NCc2ccc(C(=O)N3CCCCCC3)cc2)c1 | 12.3
CCN(CC)C(=O)COc1ccc(C=O)cc1OC | -3.23
CCOc1ccccc1-c1nnc(SCC(=O)NC2CC3CCC2C3)n1CC (centres unmarked) | -3.89
O=c1oc2cc(OCc3c(F)c(F)c(F)c(F)c3F)ccc2cc1-c1ccccn1 | 14
COc1ccc(S(=O)(=O)N2CCCC(C(=O)O)C2)cc1Cl (centres unmarked) | 6.43
Cc1cc[n+](CC(=O)Nc2nc3ccccc3s2)cc1.[Cl-] | 10.5
Cc1ccc(CNC(=O)c2ccc(Cl)cc2[N+](=O)[O-])cc1 | 9.22
O=C(NNc1cc(N2CCOCC2)nc(N2CCOCC2)n1)c1ccc(Cl)c(Cl)c1 | -36.5
